Assay results as given in the supplement of paper PMC7125110.
± gives the standard error. This sample is rich in variants without activity.

B1: glmS ribozyme (parent)
chain: AUAAAAGCGCCAGAACUACAGAAAUGUAGUUGACGAGGAGGAGGUUUAUCGAAUUUUCGGCGGAUGCCUCCAAA

Columns and labels:
Settings in all cases: with glucosamine-6-phosphate
[1] = variants of: B1; assay: self-cleavage kobs at 40 uM GlcN6P; higher = faster cleavage; RNA array
Procedure, shortened: (§1)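 Tiles of sequenced MiSeq chips were imaged over ~14 h at 37 °C. On them, barcoded ribozyme variants had been transcribed in situ by E. coli RNA polymerase and were tracked via a hybridised Cy3 probe while glucosamine-6-phosphate (40 μM to 10 mM) in HEPES/KCl/Mg(OAc)2 buffer flowed in. Per-tile medians, normalised to baseline and to non-cleaving reference variants, were fit to one- or two-exponential decays for kobs, and weighted Michaelis–Menten fits gave kcat and KM.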

[2] = variants of: B1; assay: self-cleavage kobs at 160 uM GlcN6P; higher = faster cleavage; RNA array
Procedure, shortened: as §1

[3] = variants of: B1; assay: self-cleavage kobs at 2500 uM GlcN6P; higher = faster cleavage; RNA array
Procedure, shortened: as §1

[4] = variants of: B1; assay: self-cleavage kobs at 10000 uM GlcN6P; higher = faster cleavage; RNA array
Procedure, shortened: as §1

[5] = variants of: B1; assay: self-cleavage kobs at 640 uM GlcN6P; higher = faster cleavage; RNA array
Procedure, shortened: as §1

| Variant | self-cleavage kobs at 40 uM GlcN6P [1] [s⁻¹] | self-cleavage kobs at 160 uM GlcN6P [2] [s⁻¹] | self-cleavage kobs at 2500 uM GlcN6P [3] [s⁻¹] | self-cleavage kobs at 10000 uM GlcN6P [4] [s⁻¹] | self-cleavage kobs at 640 uM GlcN6P [5] [s⁻¹] |
| --- | --- | --- | --- | --- | --- |
| G37A G43U | < 1e-05 | < 1e-05 |  |  |  |
| C34U G37A | < 1e-05 |  | < 1e-05 | < 1e-05 |  |
| G35C U56G C58A U69A | < 1e-05 | < 1e-05 | < 1e-05 |  |  |
| C34G A52U | < 1e-05 | < 1e-05 |  | < 1e-05 | < 1e-05 |
| G35C G63U | < 1e-05 | < 1e-05 |  |  | < 1e-05 |
| G35U A42G C61U | < 1e-05 | < 1e-05 |  | < 1e-05 | < 1e-05 |
| A36C G43C | < 1e-05 |  | < 1e-05 |  |  |
| A36U G62A | < 1e-05 |  | < 1e-05 |  | < 1e-05 |
| G37C C61G | < 1e-05 |  |  |  |  |
| G35C A39C U49A A53U | < 1e-05 |  |  |  |  |
| G35C A39G | < 1e-05 | < 1e-05 | < 1e-05 | < 1e-05 | < 1e-05 |
| C34G G62A | < 1e-05 |  | < 1e-05 |  | < 1e-05 |
| A36G U57A C58A G60A | < 1e-05 |  |  | < 1e-05 |  |
| A36G U57C | < 1e-05 | < 1e-05 | < 1e-05 |  | < 1e-05 |
| G35U A36G | < 1e-05 | < 1e-05 |  | < 1e-05 |  |
| G37C G38C | < 1e-05 | < 1e-05 |  | < 1e-05 | < 1e-05 |
| A36U U46G | < 1e-05 |  | < 1e-05 | < 1e-05 | < 1e-05 |
| C34U U57G | < 1e-05 |  |  |  | < 1e-05 |
| A36G U56A | < 1e-05 |  |  |  | < 1e-05 |
| G37A U57C | < 1e-05 |  |  |  |  |
| A36U C70A | 3.96e-05 ± 1e-05 | 4.33e-05 ± 1.3e-05 |  | 2.74e-05 ± 7.6e-06 | 0.000143 ± 3.1e-05 |
| G37A A39U G41A U46C U56C A64U | < 1e-05 |  |  |  |  |
| G35C G38C C71U | < 1e-05 |  |  |  |  |
| G35A C61A | < 1e-05 |  | < 1e-05 |  |  |

| Variant | self-cleavage kobs at 40 uM GlcN6P [1] [s⁻¹] | self-cleavage kobs at 160 uM GlcN6P [2] [s⁻¹] | self-cleavage kobs at 2500 uM GlcN6P [3] [s⁻¹] | self-cleavage kobs at 10000 uM GlcN6P [4] [s⁻¹] | self-cleavage kobs at 640 uM GlcN6P [5] [s⁻¹] |
| --- | --- | --- | --- | --- | --- |
| C34U U55A | < 1e-05 | < 1e-05 |  | < 1e-05 |  |
| C34U U55C | < 1e-05 | < 1e-05 | < 1e-05 | < 1e-05 | < 1e-05 |
| G35C U65G | < 1e-05 | < 1e-05 | < 1e-05 |  |  |
| A36G C67U | < 1e-05 |  |  |  |  |
| C34U U69A | 0.000116 ± 2.4e-05 |  |  |  | 0.00034 ± 0.00012 |
| G35A G60A | < 1e-05 | < 1e-05 | < 1e-05 | < 1e-05 | < 1e-05 |
| G35A G60U | < 1e-05 | < 1e-05 | < 1e-05 | < 1e-05 | < 1e-05 |
| C34G A64G | < 1e-05 |  |  |  |  |
| G37A G63C | < 1e-05 | < 1e-05 | < 1e-05 |  | < 1e-05 |
| A36C A39G G60U | < 1e-05 |  | < 1e-05 |  | < 1e-05 |
| C34U G41A C68A | < 1e-05 |  |  | < 1e-05 |  |
| C34G G43U | < 1e-05 | < 1e-05 | < 1e-05 | < 1e-05 | < 1e-05 |
| G35A U57G | < 1e-05 |  |  |  |  |
| C34G G60U | < 1e-05 |  | < 1e-05 |  |  |
| G37A A42U | 2.47e-05 ± 1.1e-05 | 5.06e-05 ± 1.2e-05 |  |  | 0.000193 ± 2.3e-05 |
| G35C C67U | < 1e-05 |  | < 1e-05 |  | < 1e-05 |
| A36C G40U | < 1e-05 |  | < 1e-05 | < 1e-05 | < 1e-05 |
| A36C G38U A42U U49A A52C C68U | < 1e-05 |  |  |  |  |
| G35C G43U | < 1e-05 |  | < 1e-05 | < 1e-05 |  |
| G35C G62A | < 1e-05 | < 1e-05 | < 1e-05 | < 1e-05 | < 1e-05 |
| C34U G44U A52U | < 1e-05 | < 1e-05 | < 1e-05 | < 1e-05 | < 1e-05 |
| A36G A39U U69G | < 1e-05 |  |  | < 1e-05 |  |
| C34G U54C | < 1e-05 | < 1e-05 | < 1e-05 |  |  |
| C34G G35A | < 1e-05 | < 1e-05 | < 1e-05 |  | < 1e-05 |

| Variant | self-cleavage kobs at 40 uM GlcN6P [1] [s⁻¹] | self-cleavage kobs at 160 uM GlcN6P [2] [s⁻¹] | self-cleavage kobs at 2500 uM GlcN6P [3] [s⁻¹] | self-cleavage kobs at 10000 uM GlcN6P [4] [s⁻¹] | self-cleavage kobs at 640 uM GlcN6P [5] [s⁻¹] |
| --- | --- | --- | --- | --- | --- |
| G37A A52G C67U | < 1e-05 |  |  |  |  |
| C34G G59U | < 1e-05 | < 1e-05 | < 1e-05 | < 1e-05 | < 1e-05 |
| C34G C58G | < 1e-05 | < 1e-05 |  | < 1e-05 | < 1e-05 |
| G35U G38A G51C C68A | < 1e-05 |  | < 1e-05 |  | < 1e-05 |
| A36G U46C G63U C70U | < 1e-05 |  | < 1e-05 | < 1e-05 |  |
| G35C G66A | < 1e-05 |  |  |  |  |
| C34U C50A | < 1e-05 |  |  | < 1e-05 |  |
| A36C G59C | < 1e-05 | < 1e-05 | < 1e-05 | < 1e-05 | < 1e-05 |
| A36G A39G | < 1e-05 | < 1e-05 |  |  | < 1e-05 |
| C34G U47A G62U | < 1e-05 |  |  |  | < 1e-05 |
| A36U A39G G44A | < 1e-05 |  |  |  |  |
| G35C U45A | < 1e-05 | < 1e-05 | < 1e-05 | < 1e-05 | < 1e-05 |
| G35C G41C | < 1e-05 | < 1e-05 | < 1e-05 | < 1e-05 | < 1e-05 |
| G37A A53U A64C | < 1e-05 |  |  |  |  |
| A36U G40C | < 1e-05 | < 1e-05 | < 1e-05 | < 1e-05 |  |
| G37A G62U C70G | < 1e-05 |  |  |  |  |
| G35C C71G | < 1e-05 | < 1e-05 |  |  | < 1e-05 |
| A36U A52G C70A | 5.42e-05 ± 1.4e-05 |  |  |  | 0.000171 ± 6.6e-05 |
| G35U U56G | < 1e-05 |  | < 1e-05 | < 1e-05 | < 1e-05 |
| C34G A48U U54C | < 1e-05 |  |  | < 1e-05 |  |
| A36G A52C | < 1e-05 | < 1e-05 | < 1e-05 | < 1e-05 | < 1e-05 |
| A36G U65C | < 1e-05 | < 1e-05 | < 1e-05 |  | < 1e-05 |
| A36C C50G C70U | 0.000435 ± 0.00014 |  |  |  |  |
| G35U U54C U56G A64U C70U | < 1e-05 |  |  |  |  |

| Variant | self-cleavage kobs at 40 uM GlcN6P [1] [s⁻¹] | self-cleavage kobs at 160 uM GlcN6P [2] [s⁻¹] | self-cleavage kobs at 2500 uM GlcN6P [3] [s⁻¹] | self-cleavage kobs at 10000 uM GlcN6P [4] [s⁻¹] | self-cleavage kobs at 640 uM GlcN6P [5] [s⁻¹] |
| --- | --- | --- | --- | --- | --- |
| C34U G66C | < 1e-05 |  |  | < 1e-05 | < 1e-05 |
| G35U G40U | < 1e-05 | < 1e-05 | < 1e-05 | < 1e-05 | < 1e-05 |
| C34G A39C G43C G66C | < 1e-05 |  |  | < 1e-05 |  |
| G35A A64U | < 1e-05 | < 1e-05 | < 1e-05 | < 1e-05 | < 1e-05 |
| G35A C50U | < 1e-05 | < 1e-05 |  |  |  |
| A36G U55A | < 1e-05 | < 1e-05 |  |  |  |
| G37A G38A A39G | < 1e-05 |  |  |  |  |
| C34U G43U | < 1e-05 |  |  |  | < 1e-05 |
| G35C A42G | < 1e-05 | < 1e-05 |  | < 1e-05 | < 1e-05 |
| A36U G59A | < 1e-05 |  | < 1e-05 | < 1e-05 |  |
| C34U A42G C58A | < 1e-05 |  | < 1e-05 | < 1e-05 | < 1e-05 |
| G35U C70G | < 1e-05 | < 1e-05 | < 1e-05 |  | < 1e-05 |
| G37C C68U | < 1e-05 |  |  |  |  |
| A36C G37U A42C U49A | < 1e-05 |  |  | < 1e-05 |  |
| G35A C61G U65G C67A U69G | 6.66e-05 ± 2.3e-05 |  |  |  |  |
| G37A C61U | < 1e-05 |  | < 1e-05 |  | < 1e-05 |
| G37A G51A U55G G63U | < 1e-05 |  |  |  |  |
| A36G A53C | < 1e-05 |  | < 1e-05 | < 1e-05 |  |
| G35C U45C C67G C68A | 0.00152 ± 0.00042 |  |  | 0.000566 ± 0.00018 |  |
| G37C G44A | < 1e-05 |  |  |  |  |
| A36C A53C G63U | < 1e-05 |  |  | < 1e-05 |  |
